Publication PMC4336329 (PLoS ONE, 2015)
Screen size: about 310,000 compounds; about 2,200 (0.71%) showed an effect of 50% or more. The effect is printed as a negative number. Some of the results follow.

The molecules below were run against human ether-à-go-go-related gene (hERG) potassium channel (human, UniProt Q12809) (assay: primary screen, population patch clamp on CHO cells stably expressing hERG).
human ether-à-go-go-related gene (hERG) potassium channel, sequence (Q12809 whole entry, looked up): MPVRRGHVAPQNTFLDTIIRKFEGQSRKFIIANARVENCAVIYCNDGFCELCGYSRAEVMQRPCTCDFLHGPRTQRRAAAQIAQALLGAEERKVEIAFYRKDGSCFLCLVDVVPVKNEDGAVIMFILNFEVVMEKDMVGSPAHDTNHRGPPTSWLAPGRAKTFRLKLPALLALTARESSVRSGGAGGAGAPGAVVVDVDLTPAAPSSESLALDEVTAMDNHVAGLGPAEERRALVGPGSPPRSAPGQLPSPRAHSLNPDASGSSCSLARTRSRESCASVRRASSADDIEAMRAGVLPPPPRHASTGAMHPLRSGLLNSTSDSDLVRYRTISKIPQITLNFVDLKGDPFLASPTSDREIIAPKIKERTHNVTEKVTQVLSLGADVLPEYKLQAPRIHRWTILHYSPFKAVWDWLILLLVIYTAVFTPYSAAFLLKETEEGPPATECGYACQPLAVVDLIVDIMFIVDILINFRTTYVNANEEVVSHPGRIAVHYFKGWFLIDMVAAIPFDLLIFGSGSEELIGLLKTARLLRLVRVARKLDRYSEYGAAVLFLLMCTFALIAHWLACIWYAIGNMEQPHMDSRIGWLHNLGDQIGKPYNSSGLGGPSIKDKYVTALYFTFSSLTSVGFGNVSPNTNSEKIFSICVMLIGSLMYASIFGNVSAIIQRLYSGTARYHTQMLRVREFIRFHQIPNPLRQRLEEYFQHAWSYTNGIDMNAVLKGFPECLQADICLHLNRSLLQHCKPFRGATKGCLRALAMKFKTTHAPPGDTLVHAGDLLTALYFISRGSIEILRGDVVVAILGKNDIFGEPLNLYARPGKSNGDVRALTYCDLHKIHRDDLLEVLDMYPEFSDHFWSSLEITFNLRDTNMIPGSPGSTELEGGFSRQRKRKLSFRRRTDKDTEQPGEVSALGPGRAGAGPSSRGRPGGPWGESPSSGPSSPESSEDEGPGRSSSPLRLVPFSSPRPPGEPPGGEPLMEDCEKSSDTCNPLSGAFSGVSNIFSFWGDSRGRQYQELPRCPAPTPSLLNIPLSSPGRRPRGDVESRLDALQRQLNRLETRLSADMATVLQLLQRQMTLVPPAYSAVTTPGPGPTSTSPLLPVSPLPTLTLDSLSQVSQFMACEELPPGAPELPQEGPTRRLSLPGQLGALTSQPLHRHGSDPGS

SMILES | hERG current change (%, negative = inhibition) at 1uM [%]
CC(=O)c1cccc(NC(=O)CSc2nc(N3CCCCC3)nc(N3CCCCC3)n2)c1 | 10.3
Cn1nc(C(C)(C)C)c([N+](=O)[O-])c1C(=O)N1CCOCC1 | 11.7
CCOc1ccc(NC(=O)CSc2nc3nc4c(cc3c(=O)n2CC)COC(C)(C)C4)cc1 | 11.1
CN(Cc1ccc(C#CCCO)cc1)CC1CCCN(CCc2ccc(Cl)cc2)C1 (stereo not shown) | 4.81
Cc1onc(-c2ccccc2Cl)c1C(=O)N1CCN(Cc2ccc3c(c2)OCO3)CC1 | 2.38
CCN(CCO)Cc1csc2ccc(Br)cc12.Cl | 2
CC(=O)Nc1cccc(NC(=O)CSc2nc(=O)n(Cc3ccncc3)c3c2CCC3)c1 | -5.91
C=CCn1c(=O)c2ccccc2n2c(SCc3c(C(=O)OCC)oc4ccccc34)nnc12 | -17.7
O=C(COc1ccc(Br)cc1)N1CCc2ccccc2C1 | 5.71
Cc1cccc(NC(=O)N2C3CCCC2CC(NC(=O)C2CC2)C3)c1 (stereo not shown) | 9.69
Cc1ccc(-n2ncc3c2CCCC3NC(=O)CCCN2CCCCC2=O)cc1C (stereo not shown) | -3.27
N#CCc1ccc(Oc2ccc([N+](=O)[O-])cn2)cc1 | 7.23
CCOC(=O)c1nnn(-c2nonc2-n2cccc2)c1CN1CCOCC1 | 2.28
COc1ccc(C(=O)NC(=S)NCc2ccccc2)cc1OC | 21.1
CCOc1ccc(NC(=O)C2(c3ccc(OC)c(OC)c3)CCCC2)cc1 | 3.68
CCCS(=O)(=O)N1CCCC(C(=O)N2CCN(c3ccccn3)CC2)C1 (stereo not shown) | 5.85
CCN(C(=S)Nc1ccc(C(C)=O)cc1)C1CCCCC1 | 7.64
CC1CCc2nn(CC(=O)Nc3ccc(F)cc3F)cc2C1 (stereo not shown) | 0.897
C=CCn1nc([N+](=O)[O-])nc1Sc1cccc2cccnc12 | 11.9
CNC[C@H](CC1CCCCC1)NC[C@H](NCCC1CCCC1)[C@H](C)O | -6.24

SMILES | hERG current change (%, negative = inhibition) at 1uM [%]
COCc1c(C(=O)OCC(=O)NCCN2C(=O)CSC2=O)oc2ccccc12 | 13.4
O=C1C(Cc2ccc(O)cc2)NC(=S)N1C1CCCCC1 (stereo not shown) | 9.87
CCOc1ccc(N(CC(=O)NCC2CCCO2)C(=O)CCC(=O)Nc2ccccn2)cc1 (stereo not shown) | -12.1
Cc1ccc(-n2c(C)cc(/C=N/Nc3ccc([N+](=O)[O-])cn3)c2C)cc1 | 2.54
COc1ccc(CC[n+]2cc(/N=C(\C)[O-])on2)cc1OC | -5.15
Cn1c(=O)n(CC(N)=O)c2ccccc21 | 1.25
CN1CCN(c2nc3c(c(=O)n(C)c(=O)n3C)n2Cc2ccc(F)cc2)CC1 | 12.1
CNCCc1c[nH]c2ccccc12 | 12.9
Cc1cccc(C(CC(=O)NCCc2ccccc2)c2ccccc2)c1O (stereo not shown) | 0.996
CCOC(=O)C1=C(C)S/C(=C\N(C)C)C1=O | -1.37
Cc1ccc(NC(=O)COc2cccc(Oc3ccccc3)c2)cc1S(=O)(=O)N1CCOCC1 | 5.7
CCN(CC)C(=O)c1cccc(NC(=O)C2=COCCO2)c1 | 7.34
Cc1sc2ncnc(NCCN3CCOCC3)c2c1C.O=C(O)C(=O)O | 9.44
CCn1nnc(-c2ccccc2NC(=O)c2cc(OC)cc(OC)c2)n1 | 13.5
CCOC(=O)N1CCN(C(=O)CCc2c(C)nc3nc(C)nn3c2C)CC1 | 0.258
Cc1ccc(C(=O)/C=C/NNC(=O)c2ccccc2O)cc1 | 4.9
O=C(Nc1cccc(NC(=O)c2cccs2)c1)c1cccnc1 | 11.3
COc1ccc(Cl)cc1NS(=O)(=O)c1cc(Br)cnc1N | 13.1
Cc1nnc(NC(=O)Cc2ccc(OCc3c(C)noc3C)cc2)s1 | 10.7
Cc1cc(C)c(NC(=S)N(CCN2CCCCC2)Cc2ccco2)c(C)c1 | -10.1

SMILES | hERG current change (%, negative = inhibition) at 1uM [%]
CC(C)(C)NC(=O)/C=N/O | 14.9
O=C1C(=O)N(Cc2ccncc2)C(c2ccccc2F)/C1=C(\O)c1ccc2c(c1)OCCO2 (stereo not shown) | 18
CC(C)c1ccc2occ(-c3nn[nH]n3)c(=O)c2c1 | 11.1
COc1ccc(CCNC(=O)CC(=O)N/N=C/c2ccc(C(=O)O)cc2)cc1OC | 16
CC12CN3CCN(CC(C3)C1(O)CN1CCOCC1)C2 (stereo not shown) | 2.88
C/C=C/c1ccc(OCCCCNCc2ccco2)c(OC)c1.O=C(O)C(=O)O | -62.6
CC(=O)c1c(C)[nH]c(C(=O)OCC(=O)Nc2sc3c(c2C#N)CCC(C)C3)c1C (stereo not shown) | 11.9
COc1ccccc1OCc1nnc(SCC(=O)NCc2ccco2)n1-c1ccccc1 | 9.23
COCCNC(=O)COc1ccc(C)cc1C | 4.04
CC(=O)Nc1cccc(Nc2nc(-c3cccs3)nc3ccccc23)c1 | 8.71
CC(Sc1nc2ccccc2[nH]1)C(=O)Nc1ccc2c(c1)OCCO2 (stereo not shown) | 13.9
CCN(C1CCCCC1)S(=O)(=O)c1cc2c3c(c1)CCN3C(=O)CC2 | -0.668
CCCOc1ccccc1N/C(N)=N/c1nc(C)cc(C)n1 | -59.4
O=C(COC(=O)CNS(=O)(=O)/C=C/c1ccccc1)NC1CCS(=O)(=O)C1 (stereo not shown) | 18.2
Cc1ccc(Cl)cc1NC(=O)Cn1nc(-c2cccs2)ccc1=O | 13.5
CCOC(=O)c1cc2c(=O)c3ccccc3oc2nc1C | 8.42
CN(C)S(=O)(=O)c1cccc(-c2csc(N/N=C/c3ccco3)n2)c1 | 11.8
COc1cccc(C(=O)C(C#N)=C(SC)SC)c1 | 9.51
